Assay [1] relates to SK-MEL-28 melanoma. Nature of the assay: NCI-60 one-dose screen, 48 h (100 = growth as untreated, 0 = no growth, -100 = all killed). The conditions noted are these: 2.5 mM.
Assay [2] relates to SK-MEL-2 melanoma. The description is as above. As to conditions: 2.5 mM.

Molecules are shown by their SMILES. A structure can be active in one record and inactive in another.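 Each cell line was grown in a 96-well plate and treated with one concentration of compound for 48 hours. Values below 10 were considered active.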 A number of entries come with more than one value. This list holds those alone. The source may hold further records. These are repeated runs of one drug, at its own concentration, as given; one value stands for one run. Signs of the kind (2×) count equal records among those shown.

As for `O=c1[nH]cc(F)c(=O)[nH]1`, the growth entry in assay [1] (runs of 1992) is “inactive: 27.1, 26.7 (2×), 20.4, 35.7 (2×), 21.7 (2×), 20.3, 39.2, 27.8, 36.2, 38, 37.4, 17.3, 27.4, 30.2, 13, 31.7, 24.2, 29.8 (2×), 32.1, 41.6, 29.4, 24.6, 31.9, 24.9 (3×), 19.9 (3×), 29.7, 30.9, 30.3, 38.9, 28 (2×), 43.9, 23.4, 30.4, 33, 31.5, 43.2, 33.7, 38.8, 28.3, 35.9, 53.1, 27.2, 33.8, 36.7, 114, 23, 43.8, 44.5, 34.5, 39.6, 28.7, 27.9, 16.1, 15.2, 31.4, 30, 30.7, 37.2, 19.1, 62.2, 26.4 (2×), 31, 29.6, 38.6, 43, 17.9, 45.1, 30.1, 18.9, 15.4, 31.8, 43.1, 44.7, 20.5, 36, 16.4, 38.7, 26.2, 31.1, 11.3, 36.4, 10.7, 15.6, 24.4, 20.7, 16.2, 25 (2×), 30.6, 14.4, 27, 16.6, 32.6, 25.7, 25.9, 20, 24.3, 10.6, 54.4, 18.5, 41.5, 14.6% and active: -3.04, 8.68, 5.31, -22.2, 3.48, -37.2, 7.5, 9.47, -10.9, 6.43%”; in assay [1] (runs of 1993) it was “inactive: 34.1, 31.4, 31.6, 48.8, 33.8, 23.8, 38.1, 26.7, 16.8, 23, 29.9, 40.5, 11.3, 31, 36.6, 38.6, 16.4, 36.5, 36.8 (2×), 44.6, 29.4, 43.4, 25.3, 22.4, 28.2, 21.4, 18, 47, 22, 21.8, 18.5, 87.6, 32.5, 18.7, 97.7, 12.2, 34.2, 16.7, 28.4, 41.6, 37.1% and active: 7.71, -0.7, 9.6, 8.41, 5.18%”; in assay [1] (runs of 1994), “inactive: 24.8, 19.8, 20.8, 24.4, 28.9, 25, 30.9, 39.2, 40.5, 38.1, 34.8, 12.6, 17.1, 18.9, 48.8, 40.8, 46.4, 26, 35.9, 16, 35.8, 39.1, 52.1, 49.6, 42.4, 54.4, 45.3, 39.7, 15.1, 28.1, 22.1% and active: 8.03%, -15.3%”; in assay [1] (runs of 1995), “inactive: 60.6, 21.6, 42.3, 55.5, 32.8, 20.8, 36.6 (2×), 36.3, 25.2, 42.8, 28.1, 43.3, 45, 47.2, 22.5, 31.5, 44.7, 45.1, 52.5, 25.7, 24.7, 40.4, 41.6, 28.5, 48.4, 24.1, 33.5, 36.9, 13.7, 32.2, 35.3, 26, 20.9, 29, 38.8% and active: -0.226%”; in assay [1] (runs of 1996), “inactive: 44.4, 32.1, 44.1, 45.4, 34.8, 25.1, 31.2, 32.7, 28.9, 31.9, 42.2, 30.7, 58.2, 46.4, 43.7, 33.9, 15.2, 36.9, 29.8, 28.6, 45, 35 (2×), 22.6, 38.6, 57.5, 38, 37.6, 36.4, 42.7, 44.3, 47.4, 22.1, 25.6, 41.7, 52, 27.9, 46.8, 50.8, 31.1, 23, 37.1, 71.4, 34.7, 26.2, 37.9, 27.4, 47.8%”; in assay [1] (runs of 1997) it was “inactive: 29.6 (2×), 47.8, 14.4, 90.3, 43.6, 39.3 (2×), 30.5, 18.1 (2×), 48.5, 37.1, 32.9, 37.9, 13.1 (2×), 32.3, 36, 39.1, 44.6, 42.1, 22.4, 40.1, 32.7, 30.9, 31.5, 22.1, 30, 17.6, 31.7, 20.8, 10.7, 32.4, 23.4, 15.5, 42.8, 31.4, 39% and active: -100, -4.83, 3.6, 1.47, -12.1, 5.04%”. The growth result in assay [1] (runs of 1998) is “active: -13.2, -5.09, 2.4, -11.3, 1.58% and inactive: 41.7, 27.2 (2×), 28.8, 64.2, 24.4, 26.5, 33.5, 23.3, 19.5, 36.3, 44.5, 27, 21.7, 32.8, 39.7, 40.6, 34.8%”; in assay [1] (runs of 1999), “inactive: 67.9, 41.2, 18.9, 11.1, 47.9, 60.3, 23.1, 15, 14.3% and active: -38.8, 2.15, 2.85, 4.22, 3.23%”; in assay [1] (runs of 2000), “inactive: 12.7% and active: 3.45%, 5.27%, -15.2%”; in assay [2] (runs of 1991), “inactive: 49.3, 35.6, 49, 45.6, 47.6, 41.6, 42.6, 102, 44, 117, 27.8, 22, 31.8, 51.8, 43.9, 46.7, 36.9, 22.6, 19.6, 52.1%”; in assay [2] (runs of 1992), “inactive: 28.6, 26.4, 28.2, 32.9, 70.6, 24.9 (2×), 23.9 (2×), 22.2 (2×), 30.2, 118, 45.4, 26.9, 86.6, 29.6 (2×), 29.7, 26.3, 19.6, 24.5, 25.5, 15.7, 48.8, 51.9, 145, 128, 33.1, 26, 54.3, 33.7 (2×), 22.8, 23.5 (2×), 25, 33, 27.5 (2×), 30.4, 22.5, 39.4, 32.4 (2×), 26.2, 36.6, 44.3, 59.6, 42.8, 35.8, 36.7, 17, 43.7, 41.7, 22.1, 47.7, 37.7, 34, 39.3, 35.5, 28.5, 24.8, 39.6, 29.4, 32.2, 34.8, 28.1, 46.2, 49.9, 39.1, 28.3, 28.9, 23.1, 34.4, 25.8, 15, 30.7, 36.1, 40.6, 23.4, 35.7, 78.6, 43.3 (2×), 44.8, 35.4, 30.6, 42.5, 18, 58, 19.7, 33.5, 21.8, 21.1, 55.3, 34.2, 25.1, 44.2, 57.1% and active: 2.72, 3.46, 6.54, 9.88, -6.94, -5.92, -13.8, -27.7, -9.67, 2.13, 9.19, 2.89, -30.3, 3.29%”; in assay [2] (runs of 1993), “inactive: 28.6, 24.4, 40, 18.2, 17.2, 55.8, 125, 32.3, 25.4, 29.6, 64.8, 29.4, 44.1, 37.5, 12.4, 39.9, 58.6, 17.3, 22.9, 48.2, 36.4, 38.1, 44.2, 32.1, 21, 47.3, 35.2, 41.3% and active: -1.3%, -9.78%”. Also, the growth result in assay [2] (runs of 1994) is “inactive: 41.3, 75.7, 25.7, 29.8, 12.6, 66.2, 40.5, 43.4, 55.2, 45.1, 52.4, 66.8, 32.3, 19.1, 10.4, 12, 25.3, 25.6, 55.8, 53.2, 53.7, 65, 40.9, 53.9% and active: -0.385%, -7.37%”; in assay [2] (runs of 1995) it was “inactive: 37.1, 21.6, 17.2, 24.7, 17.7, 28.7, 33.7, 41.9, 26.4, 30, 34.2, 43.4, 27.1, 28.9, 29.3 (2×), 33.4, 58.6, 105, 68.9, 39.7, 40.4, 54.7, 42.1, 52.8, 40.6, 56.7, 75.5, 48, 28.5, 43.6, 64.3, 75.9, 20.1, 43.1% and active: 2.17%”; in assay [2] (runs of 1996) it was “inactive: 54.5, 34.4 (3×), 57, 51.3, 50.9, 47.4 (2×), 45.9, 40.5, 66.1, 57.5, 31.9, 45, 38.4, 42.2, 34.6, 40.6 (2×), 48.7, 33.7, 39.6, 32.2, 46, 29.9, 55.4, 36.4, 45.7, 44.4, 31.2, 60.1, 61.7, 73.1, 52.6, 34 (2×), 47.7 (2×), 32.7, 53.9, 42.3, 58.9, 51.2, 44.5, 30.8, 54.1, 35, 55.5, 42.4, 49.4, 67.3, 63.3, 67.7, 52.5, 28.5, 36.3, 43.9%”.

(Values after PubChem BioAssay (NCI).)
